Measured values as given in ChEMBL document CHEMBL4888484, “Replenishing the malaria drug discovery pipeline: Screening and hit evaluation of the MMV Hit Generation Library 1 (HGL1) against asexual blood stage Plasmodium falciparum ,using a nano luciferase reporter read-out” (2022).
Hit rate of the full screen: of about 150,000 compounds, about 540 (0.36%) showed an effect of 50% or more. The list shows a part of the results.

The compounds below were run on Plasmodium falciparum (assay: Primary screen in NF54 nanoGlo assay, in single point, at 2uM, 72h; a lower Z score goes with more inhibition). Conditions: timepoint 72 hour.
Type: functional, Erythrocyte

Row | Structure (SMILES) | % Inhibition [%] | Z score
1 | O=C(c1ccc(-c2cscn2)cc1)N1CCCCC1 | -11 | 1.34
2 | C[C@@H](C(=O)N1CCCC1)n1ccc2ncccc2c1=O | -8 | 1.37
3 | Cc1nncn1CCN1C(=O)COc2cccnc21 | -23 | 2.7
4 | Cc1cccc(Oc2cc(CNC(=O)N3CC[C@H](O)C(F)(F)C3)ccn2)c1C | 0 | -0.02
5 | Cc1ccc(N(C(=O)NC(=O)Nc2c(C)cc(C)cc2C)S(=O)(=O)c2ccccc2)cc1 | -10 | 1.8
6 | Cc1ccc(NCC(=O)Nc2nc(-c3ccccc3)cc(-c3ccccc3)n2)cc1 | -8 | 1.33
7 | O=C(NCCc1ccccc1Oc1ccccc1)[C@H]1CCOC1 | -21 | 2.12
8 | Cc1nn(C)c(Oc2cccnc2)c1CN1CCN(c2ccccc2)CC1 | -9 | 1.32
9 | CCC(C)c1cc(C(=O)N[C@H](C(=O)N2CCCC2)C(C)C)on1 (some centres not stated) | -2 | 0.46
10 | CN1C(=O)C[C@H](C(=O)NCc2cccnc2N2CCOCC2)[C@H]1c1nccn1C | 2 | -0.37
11 | O=C(CCc1ccccc1)Nc1nc(-c2cccc3ccccc23)cs1 | -4 | 0.61
12 | C#CCCC1(CCC(=O)N2CCOC[C@H]2c2cccc(F)c2)N=N1 | -2 | 0.31
13 | CCc1nc2onc(C)c2c(=O)n1CC(=O)N(C)Cc1ccco1 | 5 | -0.72
14 | CC(C)O[C@H]1CN(CC(=O)NCCc2ccc(F)cc2)C[C@@H]1O | -5 | 0.73
15 | Cc1noc(C)c1CC(=O)N1CCC[C@H](C2OCCO2)C1 | -7 | 0.78
16 | CNC(=O)NC(=O)CN[C@@H](Cc1ccc(F)cc1)C(C)C | -10 | 1.05
17 | Cc1cc(NC(=O)C2CCN(c3nc4nc[nH]c(=O)c4s3)CC2)ccc1Br | 12 | -1.04
18 | Cc1nc(C(=O)N2C3C=CCC2CC3)cs1 (configuration not stated) | -1 | 0.12
19 | CCOC(=O)CNC(=O)c1cnn2c1OCCC2 | -6 | 0.87
20 | Cc1ccc(C#N)nc1N1CCCN(CC(=O)N2CCCC2)CC1 | 9 | -1.39
21 | Cc1cc(C[C@H](C)Nc2ncnc3sc(C(=O)O)c(C)c23)[nH]n1 | 2 | -0.28
22 | COc1cccc(NC(=O)c2ccnc(-c3ccsc3)c2)c1 | -4 | 0.46

Row | Structure (SMILES) | % Inhibition [%] | Z score
23 | FC1CNC(c2nc(-c3ccccn3)no2)C1 (configuration not stated) | -6 | 1.17
24 | O=C(Nc1ccc(-n2cncn2)nc1)c1cc[nH]n1 | -13 | 2.4
25 | Cc1nc2n(n1)C[C@@H](NS(=O)(=O)Cc1ccccc1Cl)CC2 | -7 | 0.74
26 | CN(C)c1ccccc1NCc1cccc(F)c1 | -15 | 1.57
27 | Cc1cc(CN2C[C@@H](F)C[C@H]2CN(C)c2nnnn2C)on1 | -12 | 1.6
28 | COc1cccc(NC(=O)Cn2c3c(c(=O)n2-c2ccccc2)Cc2cccc(OC)c2O3)c1 | 7 | -1.41
29 | Cc1cc(-n2cc(C(=O)O)c3c2[C@@H](c2ccc(C(C)C)cc2)CC(=O)N3)no1 | -46 | 5.44
30 | Cn1nccc1NC(=O)Cn1cc(-c2ccc(-c3nc4ccccc4[nH]3)o2)cn1 | -10 | 1.28
31 | COc1ccccc1OCC(=O)NC(C)(C)C | 34 | -3.85
32 | Cc1oc(C)c(C(=O)N2CCOCC2)c1C | -15 | 1.54
33 | CC(CC(=O)N(C)C)NC1CCc2c(Br)cccc21 (configuration not stated) | 7 | -0.65
34 | O=C(NCc1ccc(F)cc1F)C1CCN(c2cn[nH]c(=O)c2)CC1 | 3 | -0.55
35 | CN(C[C@H]1CCCCO1)C(=O)c1ccc(F)cc1Cl | 5 | -1
36 | CC(C)N1CCN2C(=O)c3ccc(-c4ccccc4)cc3OCC[C@@H]3CC[C@H](O)[C@@H](CNC(=O)[C@@H]2C1)O3 | -4 | 0.64
37 | CCOC1CC(N(C)C(=O)CCCc2nc(C)no2)C12CCCC2 (configuration not stated) | -12 | 1.23
38 | CN1CCN(c2nc(N)nc(C(F)(F)F)n2)CCC1=O | -2 | 0.26
39 | O=C(CN1C(=O)CCC1=O)OC1CN(c2nc3ccccc3s2)C1 | 7 | -0.77
40 | O=C(NCc1cccnc1-c1ccco1)c1ccc(F)cc1 | -22 | 4.23
41 | O=C(NCCNC(=O)c1c(O)c(Cl)cc(Cl)c1Cl)c1ccco1 | -14 | 1.67
42 | Cn1ncnc1CCNC(=O)NC1CCCCC1Cc1ccccc1 (configuration not stated) | -9 | 1.12
43 | CC#CCNc1cc(Cl)ccc1CS(C)(=O)=O | -8 | 1.58
44 | C#CCN[C@@H](CO)c1cc(F)c(F)c(F)c1 | -3 | 0.38

Row | Structure (SMILES) | % Inhibition [%] | Z score
45 | C[C@@H](c1ccccc1)N1CCN(C(=O)c2nc3ccccc3s2)CC1 | -6 | 0.72
46 | CC(NC(=O)CN1C(=O)COc2ccc(Cl)cc21)C1CCCO1 (configuration not stated) | 14 | -1.9
47 | O=C1CC[C@@H](c2ccccc2NC(=O)c2cccc3c2OCC3)N1 | 1 | -0.13
48 | O=C(CCCn1ccnc1)Nc1nc2ccc(Br)cn2n1 | 4 | -0.46
49 | Cc1oc(-c2nc(C#N)c(N3CCOCC3)o2)cc1S(=O)(=O)N1CCCCCC1 | 0 | 0.01
50 | CN(C(=O)CN1C(=O)c2cc(Cl)c(Cl)cc2C1=O)[C@H]1CCS(=O)(=O)C1 | 5 | -1.03
51 | N#CC1CCC(N2CCN(c3ccc(C(N)=O)cc3)CC2)C1 (configuration not stated) | -9 | 1.27
52 | COC(=O)[C@@H]1CN(C(=O)Cc2ccon2)C[C@H]1c1ccc(Cl)cc1 | -2 | 0.46
53 | O=C(O)[C@@H](c1cccc(Cl)c1)N1CCC(Cc2nc(C3CCC3)no2)CC1 | -17 | 2.71
54 | Cc1ccc(CN(C)C(=O)Nc2cnns2)o1 | -8 | 1.03
55 | Cn1nccc1CNc1nc2cc(Cl)ccc2n1C | 6 | -1.12
56 | Cc1noc(C)c1CC(=O)N1CCC[C@H](Oc2ccncc2Cl)C1 | 0 | 0
57 | O=C(Nc1ccccc1OCC1CC1)N1CCN2CCC[C@H]2C1 | -7 | 0.99
58 | O=C(Nc1ccc(-n2nn[nH]c2=O)cc1)c1ccc(-c2ccccc2)[nH]1 | 1 | -0.18
59 | C#CCN1C(=O)[C@]2(CC(=O)Nc3c2cnn3-c2ccc(F)cc2)c2ccccc21 | 1 | -0.12
60 | O=C(C1CCC1)N1CCOc2ccc(N3CCCC3)cc2C1 | -2 | 0.32
61 | CC(C)O[C@@]1(C)C[C@H]1NC(=O)N[C@H]1CC[C@@H](C(=O)N2CCCCC2)C1 | -1 | 0.21
62 | Cc1ocnc1C(=O)N1CCC[C@H](n2cccn2)C1 | 0 | 0.02
63 | Cn1cc(-c2n[nH]cc2C(=O)Nc2ccc3[nH]ccc3c2)cn1 | 7 | -0.68
64 | CN1OCC(S(=O)(=O)N2CCN(Cc3ccccc3)CC2)C1c1cccc(F)c1F (configuration not stated) | -8 | 1.54
65 | CCOC1CCN(C(=O)c2cc(C)ccc2N(C)C(C)C)CC1 | 1 | -0.15
66 | C[C@H](NC(=O)Cn1cnnn1)C(=O)N1CCC=C(c2ccccc2)C1 | -12 | 1.17

Row | Structure (SMILES) | % Inhibition [%] | Z score
67 | Cc1nccn1CCC1CCN(C(=O)[C@H]2CCOc3ccccc3C2)CC1 | -5 | 0.56
68 | Cc1cc(C)cc(S(=O)(=O)N2CC(OCc3ccc(F)cc3Cl)C2)c1 | -11 | 2.07
69 | CC[C@H](NC(=O)C(C)(C)C)c1ccc(C)cc1C | 6 | -0.59
70 | Cc1ccc(-c2nc(C)c(Cc3ccccc3)c(N3CCN(S(=O)(=O)c4cc(Cl)ccc4Cl)CC3)n2)cc1 | 10 | -1.57
71 | O=C(Cn1cnc2ccccc2c1=O)c1ccc(-c2ccccc2)cc1 | 3 | -0.38
72 | Cn1cc(CN2CCC(CCCN3CCOCC3)CC2)c(-c2ccncc2)n1 | 5 | -0.62
73 | CC(C)=C1C2CCC1C1C(=O)N(c3nccs3)C(=O)C21 (configuration not stated) | -4 | 0.53
74 | Cc1nc2sc([C@H](c3ccsc3)N3CCCCCC3)c(O)n2n1 | 7 | -0.88
75 | CC1(C)CC(=O)c2cc(NC(=O)Nc3cnn(CCF)c3)ccc2O1 | 9 | -1.26
76 | Cc1cn2c(C(=O)N3[C@@H]4CC[C@H]3CNC(=O)C4)csc2n1 | -2 | 0.37
77 | CCOc1nc2cc(C(=O)N3CC[C@H](COCCOC)C3)ccc2[nH]1 | -4 | 0.76
78 | Cc1cc(CN2CCN(C(=O)c3ccc4c(c3)CCCC4)CC2)on1 | -3 | 0.51
79 | Cc1cnc(CNc2ccccc2C(=O)NC2CC2)s1 | -6 | 0.56
80 | O=C1C[C@H](c2ccc(O)cc2)c2c(-c3ccccc3)nn(-c3cccc(F)c3)c2N1 | -5 | 0.53
81 | COc1cc(C(=O)NCc2ccc3c(c2)OCO3)on1 | 8 | -1.25
82 | O=C(CN1CCc2nc[nH]c2C12CCC2)NC(C1CC1)C1CC1 | -6 | 0.96
83 | C[C@]1(NC(=O)NCc2ccc(Br)cc2)CCOC1 | -6 | 0.51
84 | CCOC(=O)N1CCC(n2ccnc2-c2sccc2C)CC1 | -12 | 1.52
85 | CNS(=O)(=O)N1CC(N2CCN(C(=O)OC(C)(C)C)CC2)C1 | -11 | 2.14
86 | C=CCN=C(NCC(=O)NC1CCCCC1)NCc1ccco1 | -7 | 1.09
